Experimental findings from ChEMBL document CHEMBL1201862, “PubChem BioAssay data set” (2004) are described below.

Structures are written as SMILES. Where “and” joins values, the source holds several entries; their conditions need not be identical. Identical values can stand only once. Counter-ions that a name gives are not always drawn.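 Step 1: Grow cells in 96-well plates. Step 2: Expose to compound for 48 hours at 5 concentrations. Step 3: Interpolate endpoints linearly; if unreached, use highest concentration. Abbreviation: GI50, concentration required for 50% inhibition of growth.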 Calls of active or inactive are those of the source. Rule as the data show it: active = GI50 up to about 1.1 µM and inactive = higher.

The subject of this assay is NCI-H322M. The assay can be described thus: NCI anticancer screen, dose series, 48 h.
Turning to `C=C(C(=O)OC)[C@@H]1C[C@@H](OC(C)=O)C2=C[C@H](C[C@@]3(C)O[C@@H]3C3=CC(C)=C(O3)[C@H]1OC(C)=O)OC2=O` [BIPINNATIN I], the GI50 is inactive: 35.2 µM.

With `O=C(NNC(=O)c1ccccc1S)c1ccccc1S` [BIS(THIOSALICYL)HYDRAZIDE], the GI50 is inactive: 13.3 µM. For `Cc1c[nH]c2c(O)cc3c(c12)[C@H](CCl)CN3C(=O)c1cc2cc(NC(=O)Nc3ccc4[nH]c(C(=O)N5C[C@@H](CCl)c6c5cc(O)c5[nH]cc(C)c65)cc4c3)ccc2[nH]1` [BIZELESIN] the value was active: 0.00104 µM; for `C[C@H]1CCC/C=C/[C@@H]2C[C@H](O)C[C@H]2[C@H](O)/C=C/C(=O)O1` [BREFELDIN A], active: 36.4 nM and active: 46.2 nM. Consider `COC(=O)[C@@]12OC[C@]34[C@H]([C@@H](O)[C@@H]1O)[C@@]1(C)CC(=O)C(O)=C(C)[C@@H]1C[C@H]3OC(=O)[C@H](OC(=O)/C=C(\C)C(C)C)[C@@H]24` [BRUCEANTIN], for which the GI50 is active: 0.0224 µM. Take `C=C1CC/C=C(\C)C(=O)C[C@@H]2[C@@H]1CC2(C)C` [BUDDLEDIN C]: the GI50 is inactive: 21.2 µM. As for `O=C(/C=C/c1ccc(O)c(O)c1)c1ccc(O)cc1O` [BUTEIN], the GI50 was inactive: 12.2 µM. For `C[C@@H]([C@H]1CC[C@@]2(C)[C@@H]3CC[C@@H]4C(=CC3=CC[C@]12C)CC[C@H](N(C)C)C4(C)C)N(C)C` [BUXAMINE A] the value was inactive: > 100 µM.

For `O=C(O)/C=C/c1ccc(O)c(O)c1` [CAFFEIC ACID], the GI50 was inactive: > 100 µM.

For `C=C(C)[C@@H]1CC[C@@]2(C)[C@H]1[C@H]1CCC3[C@@]4(C)CC[C@H](O)C(C)(C)[C@@H]4CC[C@@]3(C)[C@]1(C)C[C@@H]2O` (some centres undefined) [CALENDULADIOL], the GI50 was inactive: 37.8 µM. For the compound `CC[C@@]1(O)C(=O)OCc2c1cc1n(c2=O)Cc2cc3ccccc3nc2-1` [CAMPTOTHECIN], the GI50 was active: 0.107 µM.

As to `O=C1/C(=c2\c3ccccc3n3c(=O)c4ccccc4nc23)Nc2ccccc21` [CANDIDINE], the GI50 was inactive: > 100 µM. Take `C[C@@]12C(=O)OC(=O)[C@]1(C)[C@H]1CC[C@@H]2O1` [CANTHARIDIN]: the GI50 was inactive: 2.02 µM. For `CNC(=O)ON(C(C)=O)C(=O)NC` [CARACEMIDE] the value was inactive: 110 µM; for `NC(=O)Oc1ccccc1` [CARBAMIC ACID PHENYL ESTER], inactive: > 100 µM; for `COC(=O)Nc1nc2ccccc2[nH]1` [CARBENDAZIM], inactive: 29.7 µM. As to `NC(=O)c1nnn(Cc2cc(Cl)c(C(=O)c3ccc(Cl)cc3)c(Cl)c2)c1N` [CARBOXYAMIDOTRIAZOLE], the GI50 was inactive: 24.1 µM. Regarding `C=C(C)C1CC=C(C)C(=O)C1` (centres undefined) [CARVONE], the GI50 is inactive: > 100 µM. Consider `CCN(CC)c1ccc2cc(C(=O)Nc3ccc4[nH]c(C(=O)N5C[C@@H](CCl)c6c5cc(OC(=O)Nc5ccccc5)c5[nH]cc(C)c65)cc4c3)oc2c1` [CARZELESIN], for which the GI50 was inactive: 444 µM. On to `NS(=O)(=O)c1ccc(C(=O)O)cc1` [CARZENIDE], for which the GI50 was inactive: > 100 µM. Take `O[C@H]1[C@H](O)[C@@H](O)CN2CC[C@H](O)[C@H]12` [CASTANOSPERMINE]: the GI50 was inactive: > 100 µM. Consider `COC(=O)/C1=C/c2c([nH]c3ccccc23)/C(C(=O)OC)=C\c2c1[nH]c1ccccc21` [CAULERPIN], for which the GI50 is inactive: 26.2 µM. As to `COc1c(O)c2c(c3cc(C(=O)N4CCc5c4c(O)c(OC)c4[nH]c(C(=O)N6CC7CC78C6=CC(=O)c6[nH]cc(C)c68)cc54)[nH]c13)CCN2C(N)=O` (centres undefined) [CC-1065], the GI50 is active: 0.00561 µM.

As to `C[C@@H]1CC[C@H]2C(C)(C)[C@H]3C[C@@]12CC[C@@]3(C)O` [CEDROL], the GI50 is inactive: > 100 µM. In the case of `CC1=C(O)C(=O)C=C2C1=CC=C1[C@@]2(C)CC[C@@]2(C)[C@@H]3C[C@](C)(C(=O)O)CC[C@]3(C)CC[C@]12C` [CELASTROL], the GI50 is active: 0.528 µM. As to `Cc1ccc(-c2cc(C(F)(F)F)nn2-c2ccc(S(N)(=O)=O)cc2)cc1` [CELECOXIB], the GI50 was inactive: 18.2 µM. On to `CC1OC1C(=O)C1(O)C(C)C(O)C23OC2(C(O)c2c(O)cccc2C3=O)C1O` (centres undefined) [CERVICARCIN], for which the GI50 is active: 0.0667 µM.

For `O=C(OCCN1CCCCCC1)C(c1ccsc1)C1CCCCC1` (centres undefined) [CETIEDIL CITRATE], the GI50 was inactive: 20.3 µM.

On to `O=C(N[C@H](CO)[C@H](O)c1ccc([N+](=O)[O-])cc1)C(Cl)Cl` [CHLORAMPHENICOL], for which the GI50 is inactive: > 100 µM. Consider `CC(C)OC(=O)Nc1cccc(Cl)c1` [CHLORPROPHAM], for which the GI50 is inactive: > 100 µM. With `Nc1ccc(S(=O)(=O)Nc2cnc3c(Cl)cccc3n2)cc1` [CHLORSULFAQUINOXALINE], the GI50 was inactive: 387 µM. As for `COc1cc(Cn2c3ccccc3c3cc(C)c4c(c32)C=CC(C)(CCC=C(C)C)O4)cc2c1[nH]c1ccccc12` (centres undefined) [CHRESTFOLINE C], the GI50 is inactive: > 100 µM. In the case of `O=c1cc(-c2ccccc2)oc2cc(O)cc(O)c12` [CHRYSIN], the GI50 was inactive: 25.8 µM.

Consider `Cc1cc(C2CCCCC2)n(O)c(=O)c1` [CICLOPIROX OLAMINE], for which the GI50 was inactive: 9.12 µM. For `CN/C(=N\CCSCc1nc[nH]c1C)NC#N` [CIMETIDINE] the value was inactive: > 100 µM.

Turning to `C=C[C@H]1CN2CC[C@H]1C[C@@H]2[C@@H](O)c1ccnc2ccccc12` [CINCHONINE], the GI50 is inactive: > 100 µM. With `CCOC(=O)C(C)(C)Oc1ccc(Cl)cc1` [CLOFIBRATE], the GI50 is inactive: > 1000 µM. In the case of `Clc1ccccc1C(c1ccccc1)(c1ccccc1)n1ccnc1` [CLOTRIMAZOLE], the GI50 is inactive: 16.1 µM. For `COc1cc2c(c(OC)c1OC)-c1ccc(=O)c(O)cc1[C@@H](NC(C)=O)CC2` [COLCHICEINE] the value was inactive: 30.9 µM; for `COc1c(OC/C=C(\C)CCC=C(C)C)ccc2ccc(=O)oc12` [COLLININ], inactive: > 100 µM.

Take `COc1ccc(/C=C\c2cc(OC)c(OC)c(OC)c2)c(O)c1O` [COMBRETASTATIN A-1]: the GI50 is active: 0.0697 µM. Regarding `C[C@@H]1O[C@@H](O[C@H]2CC[C@]3(C=O)[C@H]4CC[C@]5(C)[C@@H](C6=CC(=O)OC6)CC[C@]5(O)[C@@H]4CC[C@]3(O)C2)[C@H](O)[C@H](O)[C@H]1O` [CONVALLATOXIN], the GI50 is active: 2.88e-05 µM.

For `COc1cc2cc3c4cc(OC)c(OC)cc4cc[n+]3c(C)c2cc1OC` [CORALYNE], the GI50 was inactive: > 100 µM.

On to `C=C1C(=O)O[C@@H]2[C@H]1CC[C@H](C)[C@]1(O)CCC(=O)[C@@]21C` [CORONOPILIN], for which the GI50 was inactive: > 10 µM. In the case of `CC[C@@]1(O)C(=O)OCc2c1cc1n(c2=O)Cc2c-1nc1ccccc1c2CC[Si](C)(C)C` [COSITECAN], the GI50 is active: 0.0192 µM.

As to `O=C(O)c1cc2ccccc2oc1=O` [COUMARIN-3-CARBOXYLIC ACID], the GI50 was inactive: > 100 µM. For `Cc1ccc(O)cc1.Cc1cccc(O)c1.Cc1ccccc1O` [CRESOL], the GI50 was inactive: > 100 µM. For `C/C1=C\CC/C(C)=C/C=C(/C(C)C)CC/C(C(=O)O)=C/CC1` [CROTOCEMBRANEIC ACID] the value was inactive: 53.1 µM; for `C[C@H]1COC2=C1C(=O)C(=O)c1c2ccc2c1CCCC2(C)C` [CRYPTOTANSHINONE], inactive: 1.64 µM. Regarding `CC(C)(O)/C=C/C(=O)[C@](C)(O)[C@H]1[C@H](O)C[C@@]2(C)[C@@H]3CC=C4[C@@H](C[C@H](O)C(=O)C4(C)C)[C@]3(C)C(=O)C[C@]12C` [CUCURBITACIN D], the GI50 is inactive: 3.61 µM.

`CC(C)(O)/C=C/C(=O)[C@](C)(O)[C@H]1[C@H](O)C[C@@]2(C)[C@@H]3CC=C4[C@@H](C=C(O)C(=O)C4(C)C)[C@]3(C)C(=O)C[C@]12C` [CUCURBITACIN I]: the GI50 was inactive: 4.22 µM and inactive: 3.94 µM. For `COc1cc2c(cc1-c1coc3cc(O)ccc3c1=O)OCO2` [CUNEATIN] the value was inactive: 26.7 µM. For `CC1CCCCCC(=O)c2c(O)cc(O)cc2CC(=O)O1` (centres undefined) [CURVULARIN] the value was inactive: > 100 µM; for `C[C@@H]1C[C@@H]([C@H](O)CC2CC(=O)NC(=O)C2)C(=O)[C@@H](C)C1` [CYCLOHEXIMIDE], active: 0.0485 µM; for `Cc1c(O)ccc2c(O)c(NC(=O)c3ccc4c(c3)CCC(C)(C)O4)c(=O)oc12` [CYCLONOVOBIOCIC ACID], inactive: > 100 µM.

Consider `CO[C@H]1C[C@H](O[C@H]2CC[C@]3(C=O)[C@H]4CC[C@]5(C)[C@@H](C6=CC(=O)OC6)CC[C@]5(O)[C@@H]4CC[C@]3(O)C2)O[C@H](C)[C@H]1O` [CYMARIN], for which the GI50 was active: 0.325 µM.

For the compound `O=c1cccc2n1CC1CNC[C@H]2C1` [CYTISINICLINE], the GI50 was inactive: > 100 µM.

In the case of `Cc1cc(O)c2c(c1O)C(=O)c1c(O)ccc(O)c1C2=O` [Cynodontin], the GI50 is inactive: > 100 µM.

For the compound `CN(C)/N=N/c1[nH]cnc1C(N)=O` [DACARBAZINE], the GI50 is inactive: 95.3 µM. For the compound `Nc1ccc2c(c1)CN1C(=O)c3ccccc3C1=N2` [DANIQUIDONE], the GI50 is inactive: 44.2 µM. Regarding `CN(C)c1cccc2c(S(=O)(=O)NCCN)cccc12` [DANSYL ETHYLENEDIAMINE], the GI50 is inactive: > 100 µM.

With `O=C1c2cccc(O)c2C(=O)c2c(O)cccc21` [DANTHRON], the GI50 is inactive: 40.5 µM. For the compound `CC(=O)N(O)CCCCCNC(=O)CCC(=O)N(O)CCCCCNC(=O)CCC(=O)N(O)CCCCCN` [DEFEROXAMINE HYDROCHLORIDE], the GI50 was inactive: 20.1 µM. For `C=C(C)C1CC2=C(O1)C(=O)c1ccccc1C2=O` (stereo not drawn) [DEHYDROISO-ALPHA-LAPACHONE] the value was inactive: 21 µM.
